Reference: the supplement of paper PMC10126150
Sequences with one replicate were seen in a single cluster, so their values are uncertain.

Tested on: ATP
Test: switch fluorescence ratio, 500 uM ATP over buffer (Cy3 cluster intensity, sum of 5 cycles each) (fold (ratio)); higher = stronger signal-on switching upon ATP binding; sequences stand for … in TCGTCGGCAGCGTCAGATGTGTATAAGAGACAGTTTTTTTTTTTTTTTTTTTTTTTTT…TC
Conditions: aptamer strand: ATP DNA aptamer (quencher-CACCTGGGGGAGTATTGCGGAGGAAGG + anchor), 100 nM annealed; ATP concentration: 500 uM; one replicate
In short: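 Clusters carrying Cy3-labelled switching strands on a modified Illumina MiSeq flow-cell were annealed to 100 nM quencher-labelled ATP aptamer and imaged in selection buffer. They were imaged again after 15 min with 500 uM ATP at 22 °C, over five buffer/ATP cycles with NaOH stripping and re-annealing in between. For each cluster, the fluorescence ratio is the summed Cy3 intensity of the target cycles divided by that of the buffer cycles, averaged per switch-domain sequence. Clusters outside 100-1000 RFU were left out.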
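Note: ATP exposure 15 min at 22 °C before imaging.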

Row | Sequence | switch fluorescence ratio
1 | TCGTGTCCAT | 0.982
2 | GCTCTGAGCA | 0.96
3 | TAATTAAT | 1.01
4 | CCTGAGAG | 1.01
5 | CAGCTCCTGC | 0.996
6 | AAAAATAGAG | 0.995
7 | TGCAAGCTTT | 1.02
8 | TACTGACGGC | 1.39
9 | GCCCATGACT | 1.02
10 | AATGAATCTA | 0.969
11 | CGACTTAACG | 0.973
12 | GCACGGTGC | 1.04
13 | GCAAGGACGT | 1.03
14 | TTCAATTTGA | 1.01
15 | GGAAGTCACT | 0.994
16 | TGCGTCTGTA | 0.998
17 | CAGATGCGTT | 0.982
18 | TATCTCCGAG | 1.19
19 | ATGAACTCTC | 0.982
20 | GCCAGTCC | 1.05
21 | TTCAATGGC | 0.903
22 | AAGCTATG | 1.01

Row | Sequence | switch fluorescence ratio
23 | CTCTCTCGGA | 1
24 | CTTGAAAGAA | 1.17
25 | AAAGTAGAT | 1.04
26 | GAGACCCGTT | 0.989
27 | ATTCTACTCA | 1.01
28 | AATTTTGTCC | 1
29 | GATTAGTGAT | 0.986
30 | ACGAAAGGCT | 1.11
31 | CTTGAATTGT | 0.98
32 | GTTGATCTTG | 0.981
33 | GTTGATGGTC | 0.924
34 | TCCAACGGCC | 1.08
35 | GTCTTATGCC | 0.969
36 | CAGAGGATA | 0.982
37 | CTGTTTGCTT | 1.01
38 | AAGCGGCGCA | 1.03
39 | CGCATATGCG | 0.998
40 | GACTAGACTA | 1.03
41 | AGGGTCATGA | 1.08
42 | AAGGCAAAAG | 0.97
43 | TGGTAGCCG | 0.99
44 | GAGCTGTCCG | 1.02

Row | Sequence | switch fluorescence ratio
45 | TCCACGCTTG | 1
46 | AGGTGAGGTG | 0.971
47 | AGGCCAACAG | 1.01
48 | TGTGTCTCAA | 1.01
49 | ATCTCTTCGG | 1.03
50 | GGGGTTATGC | 1.05
51 | CGGGTCTTAC | 1.06
52 | GGGATAGTTG | 0.97
53 | GCAGTGTACT | 1.12
54 | ATGTTGGTCT | 0.955
55 | AGCTCGGGAT | 0.995
56 | CATTGTCTAC | 1.03
57 | GGGCGTAGC | 0.99
58 | CTGCCCCGGT | 1.92
59 | CGCTTATAGT | 1.15
60 | CAAGGGTGTC | 1.05
61 | TATAGTTTGG | 1.01
62 | ATAAAATAGA | 0.972
63 | TTTAACGACA | 1.02
64 | CTCCGTGGTG | 2.01
65 | TGTTGCCCGT | 0.991
66 | CGCATTAGTT | 1.29

Row | Sequence | switch fluorescence ratio
67 | CACTCAGCTT | 1.24
68 | CATGGCCCGT | 1
69 | GACCAGCGGC | 1.02
70 | CACGTGCCCC | 1.01
71 | CAAGCATCTG | 1.06
72 | ACGGAAGAAC | 1.27
73 | GTCTGAGTTG | 0.955
74 | CCTCGTGCAT | 4.34
75 | TAAACTATAA | 0.962
76 | GATCTCACTC | 1.06
77 | TGCTGTGAGT | 0.981
78 | CGAACGATTA | 1.08
79 | ATAGCGCTCT | 0.989
80 | GCGTGCAAAC | 1.01
81 | CAATTTTAGA | 0.981
82 | TGAGCGCCAG | 1.02
83 | GATTCTTGA | 1.02
84 | TAAGGGAGAG | 1.01
85 | CACCTGGGCT | 1.04
